GI50 and TGI data for two compounds are collected here from PubChem BioAssay (NCI).

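Following 48 hours of exposure in 96-well plates, responses at five concentrations were used to interpolate endpoints linearly. GI50: concentration for 50% inhibition of growth. TGI: total growth inhibition.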

The test system of this test is NCI-H322M lung. As to the kind of experiment: growth of human tumour cells (NCI), 48 h.

Consider `COc1cc(/C=N/Nc2ccnc3cc(Cl)ccc23)cc(OC)c1O`, for which the GI50 is 1.72 µM and the TGI came out at 3.12 µM.
Take `CS(=O)(=O)c1ccc2c(c1)c1c(n2C(=O)c2ccc(Cl)cc2)CCCC1`: the GI50 is 31.8 µM and the TGI is more than 100 µM.
